Out of some 150,000 compounds screened, about 540 (0.36%) showed an effect of 50% or more. This is one part of the list.
system: Plasmodium falciparum; test: Primary screen in NF54 nanoGlo assay, in single point, at 2uM, 72h; a lower Z score goes with more inhibition; format: functional, Erythrocyte; conditions: timepoint 72 hour

| Structure (SMILES) | % Inhibition [%] | Z score |
| --- | --- | --- |
| C[C@H](Oc1ccccc1)C(=O)NC1CCN(c2cnsn2)CC1 | 1 | -0.15 |
| Cc1ccc2nc(Cc3ccccc3)c(NC(=O)c3ccc(C(F)(F)F)cc3)n2c1 | -11 | 1.53 |
| CCC(=O)N(Cc1c(-c2ccccc2)noc1N1CCCC1)CC1CC1 | 3 | -0.4 |
| CCC1=Nc2ccccc2N=C(NC(=O)CN2CCN(C)CC2)[C@H]1c1ccccc1 | -6 | 0.93 |
| CC(C)[C@H](NC(=O)Nc1cc(Cl)ccc1F)C(N)=O | 43 | -5.74 |
| O=C(CN1CCC[C@H](C(=O)NCC(F)(F)F)C1)NC1CCCC1 | -5 | 0.59 |
| Cc1c2c(=O)n(-c3nc4ccccc4s3)[nH]c2cc(=O)n1CCc1c[nH]c2ccccc12 | -7 | 0.87 |
| CCCS(=O)(=O)NC(=O)CCCc1ccccc1 | 3 | -0.39 |
| CCCn1cc(-c2cc(-c3ccc(OC)nc3)nc(N)c2C#N)c(C)n1 | 2 | -0.19 |
| CN1CCC(NC(=O)c2csc(NC(=O)c3cccc(Cl)c3)n2)CC1 | 8 | -1.14 |
| CCCC(=O)NCc1nn(C2CCCC2)c2c1CCCC2 | -14 | 2.74 |
| CC[C@@]1(C)CCCN(C(=O)c2cc(Cn3cc(C)cn3)on2)CC1 | -8 | 1.09 |
| COc1ccc(C(=O)Nc2c(C)nc(Nc3ccc(C)cc3)nc2Nc2ccc(C)cc2)cc1OC | -9 | 1.79 |
| CCOC(=O)NCC#CCOc1ccccc1C(N)=O | 40 | -6.34 |
| CC1(O)CC2CCC(C1)N2C(=O)c1cc(Br)c2c(c1)OCCO2 (stereo not drawn) | 35 | -5.09 |
| COc1cccc(CNC(=O)c2cc(-c3ccccc3)ns2)n1 | -7 | 0.96 |
| COc1ccc(NC(C)=O)cc1NC(=O)NC(C)C(C)CO (stereo not drawn) | -7 | 1.37 |
| Cn1cc(CNc2ccc3[nH]c(=O)n(C)c3c2)c(C(C)(C)C)n1 | -13 | 2.58 |
| CC1CCN(C(=O)c2cc(S(=O)(=O)N(C)CC(=O)Nc3ccc(F)c(Cl)c3)c[nH]2)CC1 | -3 | 0.27 |
| O=C(Cc1ccc2c(c1)OCO2)N1CC2CCC1C2 (stereo not drawn) | -7 | 0.58 |
| CC(C)COc1cccc(C(=O)N(C)C)c1 | -4 | 0.64 |

| Structure (SMILES) | % Inhibition [%] | Z score |
| --- | --- | --- |
| O=C(NCCn1nnc2ccc(F)cc2c1=O)C1CCOCC1 | -4 | 0.65 |
| CN(Cc1ccncn1)c1ccc(C(F)(F)F)cn1 | -12 | 1.6 |
| O=C(NCC1CC1)c1nn(CCOc2ccccc2)c2c1CNCC2 | 2 | -0.37 |
| N#CC1(NC(=O)COC(=O)c2ccc(N3C(=O)c4ccccc4C3=O)cc2)CCCCC1 | 0 | -0.04 |
| O=C1NCCCCCCN(C(=O)CC2CCCC2)[C@@H]2CCCC[C@H]12 | -6 | 0.79 |
| Cc1cnccc1CCNCc1cccc2nonc12 | -11 | 1.73 |
| COC[C@@H]1CN(Cc2cnn(C)c2C)C[C@H]1c1nc(C2CC2)no1 | 3 | -0.51 |
| CN(C)CCN(CC1CCCCC1)S(=O)(=O)c1ccc(C#N)s1 | 3 | -0.48 |
| O=C(COc1cccc[n+]1[O-])N1CCCc2ccccc21 | -8 | 1.03 |
| COC(=O)c1ccc(C)c(OCc2cn3ccccc3c2C#N)c1 | -17 | 2.14 |
| C[C@](O)(C(=O)NC1CCN(C(=O)c2cc(Cl)c[nH]2)CC1)c1ccc(Cl)cc1 | 1 | -0.09 |
| COc1ccc2[nH]c3c(c2c1)CCN1C(=O)N(CCc2ccccc2)C(=O)[C@]31C | 2 | -0.24 |
| Brc1ccc([C@H]2C[C@@H](c3ccccc3)Nc3nnnn32)cc1 | -6 | 0.8 |
| O=C(CN1CCC[C@H]1C1CCC1)NC1CCCCCCC1 | -9 | 1.13 |
| O=C(c1cnccn1)N1C[C@@H](COCC2CC2)[C@H](c2ccncc2)C1 | -9 | 1.68 |
| COc1cccc(CN2CC3(CCN(c4cc(N)ncn4)CC3)CC2=O)c1 | -16 | 1.89 |
| Cc1coc(C(=O)Nc2ccc(Cl)c(CN(C)C)c2)c1C | -11 | 1.48 |
| O=C(COCc1nc2ccccc2[nH]1)N1CC[C@H](Cc2cccc(CO)c2)C1 | -2 | 0.46 |
| CCOc1ccccc1NC(=O)c1cc(-c2cccc(OC)c2)nc2c1c(C)nn2C | 27 | -3.02 |
| COc1ccc(OC)c(-c2nnc(NC(=O)COc3ccccc3)o2)c1 | 2 | -0.27 |
| COc1ccc(NC(C)=O)cc1NC(=O)CCN1C(=O)c2ccncc2C1=O | -6 | 0.93 |

| Structure (SMILES) | % Inhibition [%] | Z score |
| --- | --- | --- |
| C[C@H]1COc2ccc(C(=O)NC(C)(C)c3nnn[nH]3)cc21 | -1 | 0.24 |
| O=C(N[C@H]1CCN(C2CC2)C1)c1nc[nH]c1C(F)(F)F | -7 | 1.23 |
| CCC(CC)C(=O)N(Cc1cc(NC(=O)NC(C)C)ccc1N(C)C)CC1CC1 | -12 | 1.17 |
| CNC(=O)CCc1ccccc1NC(=O)N1CCO[C@H](c2ccccc2)C1 | -12 | 1.07 |
| O=C(NCc1ccon1)N[C@H]1CCc2c1ccc(Cl)c2Cl | -5 | 0.71 |
| CC(C)OCCCOc1cc(Cl)ccc1S(N)(=O)=O | 5 | -0.81 |
| COc1cccc([C@@H](C)CC(=O)N(C)c2cccnc2OC)c1 | -6 | 0.92 |
| Cc1nc(-c2cc(-c3ccc(C)o3)n[nH]2)n([C@H]2CCS(=O)(=O)C2)n1 | -23 | 2.41 |
| CC(C)c1nnc(CNC(=O)Cc2cc3ccccc3s2)[nH]1 | -15 | 2.42 |
| CC1(C)C[C@@H]1C(=O)N[C@H]1CC[C@H](CO)CC1 | 1 | -0.11 |
| CCOc1ncccc1CNC(=O)Cc1sc(C)nc1-c1ccc(C)cc1 | -1 | 0.14 |
| CC(=Cc1ccc(F)cc1)C(=O)N1CC[C@@H](N)C1 | -3 | 0.51 |
| Cc1cc(CN2CCCC2)cc(-c2ccc(C(=O)N3CC(O)C3)cc2)c1 | -6 | 1.15 |
| Cc1ncsc1CNc1cccc(C(=O)N2CCC[C@@H]2CO)n1 | -5 | 0.64 |
| CC(=O)N1CCN(C[C@@H]2C=C(C)[C@H](Cc3nnc(-c4cncn4C)o3)C[C@H]2C(C)C)CC1 | 8 | -0.95 |
| O=C(c1nc(C2CC2)n2ccccc12)N1CC(CO)C1 | 31 | -3.48 |
| COC(=O)[C@@H]1C[C@H](O)CCN1C(=O)c1ccc(-n2cccn2)cc1 | -3 | 0.4 |
| CC(C)(C)c1nn[nH]c1CNc1ccccc1 | -32 | 3.78 |
| CCC(CC)C(=O)Nc1ccc([C@@H](O)[C@H]2COCC(=O)N2Cc2ccccc2)cc1 | -5 | 0.7 |
| CN(Cc1ncc[nH]1)C(=O)NC1CC(C)(C)CC(C)(C)C1 | -5 | 0.96 |
| CC(C)(C)[C@H](NC(=O)C#Cc1ccccc1)C(N)=O | -5 | 0.9 |

| Structure (SMILES) | % Inhibition [%] | Z score |
| --- | --- | --- |
| Cc1ccc(-n2nc3c(N4CCN(C(=O)NCCC(C)C)CC4)nnc(C)c3c2C)cc1 | -9 | 1 |
| CCOc1ccc([C@@]2(O)CN3C=CC=CC3=[N+]2c2ccccc2)cc1 | -39 | 4.59 |
| O=C(Nc1ccncc1)[C@H]1CC12CCCC2 | -6 | 1.14 |
| COC(=O)[C@H](CNC(=O)Cc1cc(C)[nH]n1)Cc1ccccc1C | -19 | 2.08 |
| CCCc1nc(CN2CCOCC3(CCC3)C2)cs1 | -2 | 0.35 |
| NC(=O)CC1(NC(=O)Cc2c[nH]c3cc(F)ccc23)CCOCC1 | -8 | 1.24 |
| CN(C)c1noc(-c2cc3c(cc2Br)NC(=O)CO3)n1 | -10 | 1.5 |
| CC1CC1C(=O)N1[C@@H]2C[C@H]3CC[C@]2(CS1(=O)=O)C3(C)C (stereo partly drawn) | 9 | -0.89 |
| O=C(c1ccccc1-c1ccccc1)N1CCO[C@H]2CCCC[C@@H]21 | -2 | 0.28 |
| CC1(C)CN(CC(=O)NC2CCCCC2)c2ccc(S(=O)(=O)N3CCCC3)cc21 | -3 | 0.52 |
| CC(C)N(CCS(C)(=O)=O)Cc1nccs1 | -7 | 1.07 |
| Cc1ccccc1C1=NO[C@@H](CN(Cc2ccc(F)cc2)C(=O)C2CCC2)C1 | -30 | 2.62 |
| Cc1ccc(C(=O)Nc2ccc3ncnc(N4CCCCC4)c3c2)cc1F | -7 | 0.69 |
| O=C(Nc1ccccc1C(F)(F)F)N[C@H]1CCN(c2ccc(F)cc2)C1=O | 3 | -0.5 |
| CCCc1nc2ccccc2c(C(=O)OCc2nnc(-c3ccccc3)o2)c1CC | 0 | 0.01 |
| CCOc1ccccc1NC(=O)c1c(O)c2cccnc2n(-c2ccccc2)c1=O | 8 | -1.03 |
| N#Cc1ccc(F)c(CNS(=O)(=O)c2ccc(OCC(F)(F)F)nc2)c1 | -5 | 0.95 |
| O=C(Nc1c[nH]nc1C1CC1)c1cc(C(F)F)ncn1 | -22 | 2.22 |
| CC(C)Cc1cc(C(=O)N2CCn3nc(C#N)cc3C2)no1 | -9 | 1.27 |
| CC1(C)CNC(=O)[C@H]1NS(=O)(=O)c1ccc2c(c1)CCCC2 | -12 | 1.51 |
| CN(CC#N)C(=O)c1cnc(N(C)C)cn1 | -2 | 0.44 |

Source: ChEMBL document CHEMBL4888484, “Replenishing the malaria drug discovery pipeline: Screening and hit evaluation of the MMV Hit Generation Library 1 (HGL1) against asexual blood stage Plasmodium falciparum ,using a nano luciferase reporter read-out” (2022)
